Assay results published in PubChem BioAssay AID1457 (National Center for Advancing Translational Sciences (NCATS), 2008).
Among all 210,000 compounds or so, about 730 (0.35%) were called active. Inconclusive results, whose numbers are uncertain, are shown with a selection of clear calls. The call rests on the fitted dose curve; in most records, active means well fitted inhibition curve with a large enough effect; inconclusive means small, poorly fitted or top-dose-only effect; inactive means no such curve, though single readings can be large or run the other way. Potencies beside an inconclusive call are fits to weak or partial responses and may not hold up. Where a SMILES comes first, the peptide text is derived from it. [ ]: non-standard residue; d: D form. Nle = CCCC[C@H](N)C(=O)O

Experiment: qHTS Assay for Identifying the Cell-Membrane Permeable IMPase Inhibitors: Potentiation with Lithium; further: nearly all actives have a fitted effect of over 50% in size
Conditions: CHO-M1 cells, IP1 TR-FRET (IP-One), carbachol + lithium; series mostly up to 59.4 µM
How it was run: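 Lithium-sensitised IP1 accumulation assay; M1-expressing CHO cells treated 30 min at 37C with compound. Competitive antibody detection by time-resolved FRET followed a 10 min room-temperature lysis step.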
Potency means the concentration at half of the fitted maximal effect.

Row | Compound | Potency
1 | Cc1cc(NC(=O)CSc2nc(C(C)C)nc3sc4c(c23)CCC(C)C4)no1 (configuration not stated) | inconclusive: 28.2 µM [inhibitor, single point]
2 | CCC(Oc1ccccc1)C(=O)NC1CCSC1=O (configuration not stated) | inconclusive: 3.16 µM [inhibitor, single point]
3 | Cc1ccc(NC(=O)COc2ccc3oc4c(c3c2)CCCC4)nc1 | inconclusive: 28.2 µM [inhibitor, single point]
4 | CCOC(=O)Cc1csc(NC(=O)c2sc3nc4ccc(CC)cc4cc3c2N)n1 | inconclusive: 11.2 µM [inhibitor, partial curve]
5 | COc1cccc(NC(=O)CCSc2ccc3ccccc3n2)c1 | inconclusive: 10 µM [inhibitor, partial curve]
6 | Cc1cc(C)cc(OCC(=O)Nc2ccc3c(c2)C(=O)c2ccccc2C3=O)c1 | inconclusive: 10 µM [inhibitor, partial curve]
7 | O=C(NCc1ccc(C(F)(F)F)cc1)C1CC(c2ccccc2[N+](=O)[O-])=NO1 (configuration not stated) | inconclusive: 0.447 µM [inhibitor, partial curve, poor fit]
8 | COCCCN1C(=O)C(O)=C(C(=O)c2ccc(C)o2)C1c1cccc(Br)c1 (configuration not stated) | active: 10 µM
9 | CCC/C(=N\NC(=O)Cc1csc(N2CCOCC2)n1)c1ccccc1 | inconclusive: 2.82 µM [inhibitor, single point]
10 | Nc1nc(SCC(=O)Nc2cc(C(F)(F)F)ccc2N2CCOCC2)n[nH]1 | inconclusive: 5.01 µM [inhibitor, single point]
11 | Cc1ccccc1-c1cc(Nc2ccc(F)cc2)ncn1 | inactive
12 | CCc1ccc2c(c1)cc(CN(C(=S)Nc1ccccc1C)C1CC1)c1nnnn12 | inconclusive: 14.1 µM [inhibitor, single point]
13 | Cc1nn2c(N)c(C#N)cnc2c1-c1ccc(Cl)cc1 | active: 11.2 µM
14 | Cc1cccc(OCCN2CSC(=S)N(C)C2)c1 | inactive
15 | COc1ccc2nc3sc(C(=O)NCc4cccs4)c(N)c3cc2c1 | inconclusive: 17.8 µM [inhibitor, partial curve, poor fit]
16 | CCCC[C@@H](C=O)NC(=O)[C@H](CC(C)C)NC(=O)[C@H](CC(C)C)NC(C)=O (Ac-Leu-Leu-[Nle]-aldehyde) | inconclusive: 0.501 µM [inhibitor, full curve, poor fit]
17 | Cc1c(CNC2CCCC2)c(C(=O)O)c(C)n1Cc1ccccc1 | inactive
18 | COC(=O)c1cc(Br)c(=O)n(-c2cc(C)on2)c1 | active: 10 µM
19 | O=C(N/N=C/c1ccsc1)c1cc(-c2ccncc2)nc2ccccc12 | inactive
20 | Cc1cc(=O)oc2cc(OCC(=O)NCc3ccco3)ccc12 | inactive
21 | O=c1c(O)c(-c2ccc(O)c(O)c2)oc2ccccc12 | inactive
22 | Cn1c(SCC(=O)Nc2ccc3nc(SCC(=O)N4CCCC4)sc3c2)nnc1-c1ccc(N)cc1 | inactive
23 | COc1ccc(N=C2SC(CC(=O)Nc3ccc(F)cc3)C(=O)N2Cc2ccco2)cc1 (configuration not stated) | inactive
24 | CCCn1c(=O)[nH]c2nc(-c3ccc(S(=O)(=O)O)cc3)[nH]c2c1=O | inconclusive: 11.2 µM [inhibitor, single point]

Row | Compound | Potency
25 | CCc1sc2nc(SCC(=O)Nc3cc(C)on3)n(-c3cccc(OC)c3)c(=O)c2c1C | inconclusive: 28.2 µM [inhibitor, single point]
26 | c1ccc(-n2ncc3c(NCc4ccco4)ncnc32)cc1 | inconclusive: 22.4 µM [inhibitor, single point]
27 | C=CCOc1c(Br)cc(CNc2nccs2)cc1OC | inactive
28 | O=C(CCN1C(=O)c2ccc([N+](=O)[O-])cc2C1=O)Nc1cccc(O)c1 | inactive
29 | COCCCNc1nc2c(-c3cccc(C)c3)nnn2c2ccccc12 | inconclusive: 28.2 µM [inhibitor, single point]
30 | Cc1ccc(C)n1-c1ccc(-c2nnc3n2CCCCC3)s1 | active: 12.6 µM
31 | Cc1cccc[n+]1C1C(c2ccccc2)C(C#N)=C(C(=C=[N-])C#N)NC1(O)C1CC1 (configuration not stated) | inconclusive: 10 µM [inhibitor, single point]
32 | CCCCC(=O)Nc1cc2nn(-c3ccc(OC)cc3)nc2cc1C | inconclusive: 11.2 µM [inhibitor, partial curve]
33 | COc1ccc(-n2c(SCC(=O)Nc3cc(C)on3)nc3c([nH]c4ccccc43)c2=O)cc1 | active: 5.01 µM
34 | Cc1cc(C)n(-c2ccc(Cl)c(C(=O)Nc3ccc(-c4nnc5n4CCCCC5)cc3)n2)n1 | inactive
35 | N#Cc1cc(C(=O)c2ccccc2OCC(=O)Nc2ccccc2)cn(C2CCCCC2)c1=O | inconclusive: 11.2 µM [inhibitor, single point]
36 | Cc1ccc(C)n1CCN1CCN(CC(=O)Nc2ccc(S(N)(=O)=O)cc2)CC1 | inactive
37 | Cc1cc(NC(=O)CSc2nc(C(C)C)nc3ccccc23)no1 | active: 12.6 µM
38 | CC(=O)Nc1ccc(S(=O)(=O)NCCSCc2ccc(Cl)cc2Cl)cc1 | inactive
39 | COc1ccc(Nc2c(-c3ccc(C)cc3)nc3cnccn23)cc1 | inconclusive: 3.16 µM [inhibitor, partial curve]
40 | CCCCn1c(SCc2nnc(-c3ccccc3)o2)nc2c1c(=O)n(C)c(=O)n2C | inactive
41 | CCOC(=S)NC(=O)c1sc2ccccc2c1Cl | inconclusive: 8.91 µM [inhibitor, partial curve]
42 | C=CCNC(=O)c1csc(-c2ccccc2)n1 | inconclusive: 8.91 µM [inhibitor, partial curve, poor fit]
43 | CCn1cc(C2=NOC(C(=O)Nc3cccc(C(C)=O)c3)C2)c(C)n1 (configuration not stated) | inactive
44 | O=C(CSc1ccc2nnc(-c3cccc(F)c3)n2n1)N1CCCc2ccccc21 | inconclusive: 28.2 µM [inhibitor, single point]
45 | c1cncc(CNc2ncnc3ccc(-c4ccoc4)cc23)c1 | inactive
46 | CCOC(=O)C1=NNC2(c3ccc(Cl)cc3)C(=O)N(c3cc(C)cc(C)c3)C(=O)C12 (configuration not stated) | inconclusive: 3.98 µM [inhibitor, single point]
47 | CC(=O)Nc1ccc(C2=NN(c3ccccc3)C(c3cccs3)C2)cc1 (configuration not stated) | inconclusive: 28.2 µM [inhibitor, single point]
